Results from paper PMC11995724, “Antibiotic target discovery by integrated phenotypic and activity-based profiling of electrophilic fragments” (Cell chemical biology, 2025).
Hit rate of the full screen: of about 3,200 compounds, about 110 (3.4%) showed an effect of 50% or more. Some of the results follow.

tested on: T1, V. cholerae SAD30; set-up: species or system S. aureus MSSA476 (TSB) or V. cholerae SAD30 (LB); 384-well bacterial growth screen at 25 uM, OD600 relative to DMSO control; conditions: relative growth, OD600, LB; 25 µM; inhibitor
T1 construct: SAD30

| SMILES | % of control remaining [%] |
| --- | --- |
| C=CC(=O)NC(CO)c1ccnn1C (stereo not drawn) [2-D17, N-[2-hydroxy-1-(1-methyl-1H-pyrazol-5-yl)ethyl]prop-2-enamide] | 92.203 |
| C=CC(=O)N1CCC(C(=O)Nc2nnc(CC)s2)CC1 [2-M10, N-(5-ethyl-1,3,4-thiadiazol-2-yl)-1-(prop-2-enoyl)piperidine-4-carboxamide] | 86.6448 |
| O=C(CCl)Cc1c(F)cccc1F [10-O15, 1-chloro-3-(2,6-difluorophenyl)propan-2-one] | 99.7467 |
| C=CC(=O)N1CCCC(O)(CC(N)=O)C1 (stereo not drawn) [3-K14, 2-[3-hydroxy-1-(prop-2-enoyl)piperidin-3-yl]acetamide] | 89.796 |
| O=S(=O)(c1cc(Cl)cc(Cl)c1)N1CCSSCC1 [10-J09, 5-(3,5-dichlorobenzenesulfonyl)-1,2,5-dithiazepane] | 99.1233 |
| N#CC(=Cc1c[nH]c2ccccc12)C(=O)Nc1ccc2c(c1)OCCO2 [9-B07, 2-cyano-N-(2,3-dihydro-1,4-benzodioxin-6-yl)-3-(1H-indol-3-yl)prop-2-enamide] | 51.0537 |
| C=CC(=O)NCC(=C)c1ccccc1 [2-B09, N-(2-phenylprop-2-en-1-yl)prop-2-enamide] | 87.2624 |
| C=CC(=O)N1CCOCC2(CCOCC2)C1 [2-C10, 1-{3,8-dioxa-11-azaspiro[5.6]dodecan-11-yl}prop-2-en-1-one] | 90.1959 |
| COc1cc(Cl)c(C)cc1NC(=O)C(C#N)=Cc1c(C)n[nH]c1C [8-K10, N-(4-chloro-2-methoxy-5-methylphenyl)-2-cyano-3-(3,5-dimethyl-1H-pyrazol-4-yl)prop-2-enamide] | 70.0884 |
| CC(Cl)C(=O)NC1Cc2ccccc2N(C(=O)C(F)(F)F)C1 (stereo not drawn) [7-N19, 2-chloro-N-[1-(2,2,2-trifluoroacetyl)-1,2,3,4-tetrahydroquinolin-3-yl]propanamide] | 97.0097 |
| C=CC(=O)NCC1(n2ccnn2)CC1 [2-L19, N-{[1-(1H-1,2,3-triazol-1-yl)cyclopropyl]methyl}prop-2-enamide] | 92.3574 |
| CC(Cl)C(=O)N(C)C1CCCc2c1cnn2C (stereo not drawn) [6-L16, 2-chloro-N-methyl-N-(1-methyl-4,5,6,7-tetrahydro-1H-indazol-4-yl)propanamide] | 89.3355 |
| C=CC(=O)Nc1ccnc(OC)c1 [2-F21, N-(2-methoxypyridin-4-yl)prop-2-enamide] | 104.709 |
| CCNC(=O)C(C#N)=Cc1ccc(O)c(OCC)c1 [8-O09, 2-cyano-3-(3-ethoxy-4-hydroxyphenyl)-N-ethylprop-2-enamide] | 72.9436 |
| O=C(CCl)c1ccccn1 [10-J03, 2-chloro-1-(pyridin-2-yl)ethan-1-one] | 0 |
| C=CC(=O)NC(C)c1nnnn1-c1ccccc1 (stereo not drawn) [2-I11, N-[1-(1-phenyl-1H-1,2,3,4-tetrazol-5-yl)ethyl]prop-2-enamide] | 77.0723 |
| N#CC(=Cc1cccs1)C(=O)Nc1ccc(F)cc1 [8-F10, 2-cyano-N-(4-fluorophenyl)-3-(thiophen-2-yl)prop-2-enamide] | 70.4963 |
| Cc1ccc(NC(=O)N2CCN(C(=O)C(C)Cl)CC2)cc1Cl (stereo not drawn) [7-A21, N-(3-chloro-4-methylphenyl)-4-(2-chloropropanoyl)piperazine-1-carboxamide] | 80.0925 |
| N#CC(=Cc1ccc2c(c1)OCO2)C(=O)NCc1ccco1 [9-A15, 3-(1,3-dioxaindan-5-yl)-2-cyano-N-[(furan-2-yl)methyl]prop-2-enamide] | 87.2196 |
| C=CC(=O)NCc1ccccc1CN1C(=O)NC2(CCCCC2)C1=O [2-O11, N-{[2-({2,4-dioxo-1,3-diazaspiro[4.5]decan-3-yl}methyl)phenyl]methyl}prop-2-enamide] | 88.0344 |
| O=C(CCl)NCCc1ccc2c(c1)OCCO2 [4-N11, 2-chloro-N-[2-(2,3-dihydro-1,4-benzodioxin-6-yl)ethyl]acetamide] | 104.033 |
| CC(Cl)C(=O)NC(Cn1cncn1)c1ccccc1 (stereo not drawn) [7-M09, 2-chloro-N-[1-phenyl-2-(1H-1,2,4-triazol-1-yl)ethyl]propanamide] | 80.7533 |
| Cc1ccc(NC(=O)C(C#N)=Cc2cccs2)c(C)c1 [8-D15, 2-cyano-N-(2,4-dimethylphenyl)-3-(thiophen-2-yl)prop-2-enamide] | 71.312 |
| C=CC(=O)NC(C)c1cnc(C(F)(F)F)s1 (stereo not drawn) [2-A05, N-{1-[2-(trifluoromethyl)-1,3-thiazol-5-yl]ethyl}prop-2-enamide] | 96.9893 |
| C=CC(=O)Nc1ccnn1Cc1cccc(Cl)c1 [1-N14, N-{1-[(3-chlorophenyl)methyl]-1H-pyrazol-5-yl}prop-2-enamide] | 86.3592 |
| O=C(CCl)NCC12CCCCC1C2(F)F (stereo not drawn) [5-C18, 2-chloro-N-({7,7-difluorobicyclo[4.1.0]heptan-1-yl}methyl)acetamide] | 99.359 |
| CC(Cl)C(=O)N1CCCC1c1cccc2c1OCCO2 (stereo not drawn) [7-L11, 2-chloro-1-[2-(2,3-dihydro-1,4-benzodioxin-5-yl)pyrrolidin-1-yl]propan-1-one] | 76.7884 |
| CC1CN(Cc2ccccc2)CC(C)N(C(=O)C(C)Cl)C1 (stereo not drawn) [5-B21, 1-(4-benzyl-2,6-dimethyl-1,4-diazepan-1-yl)-2-chloropropan-1-one] | 71.7873 |
| O=C(CCl)c1cc(Cl)ccc1Cl [10-E16, 2-chloro-1-(2,5-dichlorophenyl)ethan-1-one] | 49.5617 |
| CC(Cl)C(=O)N[C@H](C)c1cnnn1C (stereo partly drawn) [6-D13, 2-chloro-N-[(1R)-1-(1-methyl-1H-1,2,3-triazol-5-yl)ethyl]propanamide] | 90.0938 |
